Assay results published in the supplement of paper PMC8728848.
The other results are listed elsewhere or left out.

Experiments:
Assay in all cases: glycan array binding signal (z-score within array); higher = stronger binding
Settings in all cases: glycan notation: IUPAC condensed, linker removed
Fuc(a1-2)Gal = molecular target: Fuc(a1-2)Gal
Method in brief: (§1)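 Glycan array data came from 3228 arrays in the Consortium for Functional Glycomics database, and only arrays with an available protein sequence were kept. Glycan names were put into IUPAC-condensed notation, and columns mapping to the same glycan were averaged. The binding signal is a within-array Z-score, averaged across arrays of one protein sequence run at different concentrations or buffers and across linkers. A negative Z-score can be read as non-binding.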

Fuc(a1-2)Gal(b1-3)GalNAc = molecular target: Fuc(a1-2)Gal(b1-3)GalNAc
Method in brief: as §1

[1] = molecular target: Fuc(a1-2)Gal(b1-3)GalNAc(a1-3)[Fuc(a1-2)]Gal(b1-4)Glc
Method in brief: as §1

[2] = molecular target: Fuc(a1-2)Gal(b1-3)GalNAc(a1-3)[Fuc(a1-2)]Gal(b1-4)GlcNAc
Method in brief: as §1

[3] = molecular target: Fuc(a1-2)Gal(b1-3)GalNAc(b1-3)Gal
Method in brief: as §1

[4] = molecular target: Fuc(a1-2)Gal(b1-3)GalNAc(b1-3)Gal(a1-4)Gal(b1-4)Glc
Method in brief: as §1

[5] = molecular target: Fuc(a1-2)Gal(b1-3)GalNAc(b1-4)[Neu5Ac(a2-3)]Gal(b1-4)Glc
Method in brief: as §1

Fuc(a1-2)Gal(b1-3)GlcNAc = molecular target: Fuc(a1-2)Gal(b1-3)GlcNAc
Method in brief: as §1

[6] = molecular target: Fuc(a1-2)Gal(b1-3)GlcNAc(b1-2)Man(a1-3)[Fuc(a1-2)Gal(b1-3)GlcNAc(b1-2)Man(a1-6)]Man(b1-4)GlcNAc(b1-4)GlcNAc
Method in brief: as §1

[7] = molecular target: Fuc(a1-2)Gal(b1-3)GlcNAc(b1-2)Man(a1-3)[Fuc(a1-2)Gal(b1-3)GlcNAc(b1-2)Man(a1-6)]Man(b1-4)GlcNAc(b1-4)[Fuc(a1-6)]GlcNAc
Method in brief: as §1

[8] = molecular target: Fuc(a1-2)Gal(b1-3)GlcNAc(b1-3)Gal(b1-4)Glc
Method in brief: as §1

[9] = molecular target: Fuc(a1-2)Gal(b1-3)GlcNAc(b1-3)GalNAc
Method in brief: as §1

[10] = molecular target: Fuc(a1-2)Gal(b1-3)GlcNAc(b1-3)[Fuc(a1-2)Gal(b1-3)GlcNAc(b1-6)]GalNAc
Method in brief: as §1

[11] = molecular target: Fuc(a1-2)Gal(b1-3)GlcNAc(b1-3)[Fuc(a1-3)[Gal(b1-4)]GlcNAc(b1-6)]Gal(b1-4)Glc
Method in brief: as §1

[12] = molecular target: Fuc(a1-2)Gal(b1-3)GlcNAc(b1-3)[Gal(b1-4)GlcNAc(b1-6)]Gal(b1-4)Glc
Method in brief: as §1

[13] = molecular target: Fuc(a1-2)Gal(b1-3)GlcNAc(b1-3)[Neu5Ac(a2-6)Gal(b1-4)GlcNAc(b1-6)]Gal(b1-4)Glc
Method in brief: as §1

[14] = molecular target: Fuc(a1-2)Gal(b1-3)GlcNAc6S
Method in brief: as §1

[15] = molecular target: Fuc(a1-2)Gal(b1-3)[Fuc(a1-4)]GlcNAc
Method in brief: as §1

[16] = molecular target: Fuc(a1-2)Gal(b1-3)[Fuc(a1-4)]GlcNAc(b1-2)Man(a1-3)[Fuc(a1-2)Gal(b1-3)[Fuc(a1-4)]GlcNAc(b1-2)Man(a1-6)]Man(b1-4)GlcNAc(b1-4)GlcNAc
Method in brief: as §1

[17] = molecular target: Fuc(a1-2)Gal(b1-3)[Fuc(a1-4)]GlcNAc(b1-2)Man(a1-6)[Fuc(a1-2)Gal(b1-3)[Fuc(a1-4)]GlcNAc(b1-2)Man(a1-3)]Man(b1-4)GlcNAc(b1-4)[Fuc(a1-6)]GlcNAc
Method in brief: as §1

[18] = molecular target: Fuc(a1-2)Gal(b1-3)[Fuc(a1-4)]GlcNAc(b1-3)[Fuc(a1-3)[Gal(b1-4)]GlcNAc(b1-6)]Gal(b1-4)Glc
Method in brief: as §1

[19] = molecular target: Fuc(a1-2)Gal(b1-3)[Fuc(a1-4)]GlcNAc(b1-3)[Gal(b1-4)GlcNAc(b1-6)]Gal(b1-4)Glc
Method in brief: as §1

Fuc(a1-2)Gal(b1-4)Glc = molecular target: Fuc(a1-2)Gal(b1-4)Glc
Method in brief: as §1

Fuc(a1-2)Gal(b1-4)Glc6S = molecular target: Fuc(a1-2)Gal(b1-4)Glc6S
Method in brief: as §1

Fuc(a1-2)Gal(b1-4)GlcNAc = molecular target: Fuc(a1-2)Gal(b1-4)GlcNAc
Method in brief: as §1

[20] = molecular target: Fuc(a1-2)Gal(b1-4)GlcNAc(b1-2)Man
Method in brief: as §1

[21] = molecular target: Fuc(a1-2)Gal(b1-4)GlcNAc(b1-2)Man(a1-3)[Fuc(a1-2)Gal(b1-4)GlcNAc(b1-2)Man(a1-6)]Man(b1-4)GlcNAc(b1-4)GlcNAc
Method in brief: as §1

[22] = molecular target: Fuc(a1-2)Gal(b1-4)GlcNAc(b1-2)Man(a1-3)[Fuc(a1-2)Gal(b1-4)GlcNAc(b1-2)Man(a1-6)]Man(b1-4)GlcNAc(b1-4)[Fuc(a1-6)]GlcNAc
Method in brief: as §1

[23] = molecular target: Fuc(a1-2)Gal(b1-4)GlcNAc(b1-2)[Fuc(a1-2)Gal(b1-4)GlcNAc(b1-4)]Man(a1-3)[Fuc(a1-2)Gal(b1-4)GlcNAc(b1-2)Man(a1-6)]Man(b1-4)GlcNAc(b1-4)GlcNAc
Method in brief: as §1

[24] = molecular target: Fuc(a1-2)Gal(b1-4)GlcNAc(b1-3)Gal(b1-4)GlcNAc
Method in brief: as §1

B1: CIH1 (Colletotrichum higginsianum) (protein)
chain: LPQATPTTPTPTSASAAATISATSSPTCSPGPVIDYTVVSGDTLTIISQRFSSGICNIADASGITNPNFLSLGQVLQVPTYVCTPDNTSCLAKEGSDTCVEGGPATHTIVAGDTFFLVAQSLGLDVNALLAANEGVDPLLLQIGDVINIPVC
For B1, the “glycan array binding signal (z-score)” value (Fuc(a1-2)Gal) was -0.065, the “glycan array binding signal (z-score)” value (Fuc(a1-2)Gal(b1-3)GalNAc) was -0.071 and the “glycan array binding signal (z-score)” value [1] was -0.062. The “glycan array binding signal (z-score)” value [2] was -0.055, the “glycan array binding signal (z-score)” value [3] was -0.08 and the “glycan array binding signal (z-score)” value [4] was -0.071. For the same binder, the “glycan array binding signal (z-score)” value [5] was -0.071, the “glycan array binding signal (z-score)” value (Fuc(a1-2)Gal(b1-3)GlcNAc) was -0.064 and the “glycan array binding signal (z-score)” value [6] was -0.047. For the same binder, the “glycan array binding signal (z-score)” value [7] was -0.075, the “glycan array binding signal (z-score)” value [8] was -0.067 and the “glycan array binding signal (z-score)” value [9] was -0.067. For the same binder, the “glycan array binding signal (z-score)” value [10] was -0.033, the “glycan array binding signal (z-score)” value [11] was -0.061 and the “glycan array binding signal (z-score)” value [12] was -0.085. The “glycan array binding signal (z-score)” value [13] was -0.068, the “glycan array binding signal (z-score)” value [14] was -0.067 and the “glycan array binding signal (z-score)” value [15] was -0.066. For the same binder, the “glycan array binding signal (z-score)” value [16] was 0.015, the “glycan array binding signal (z-score)” value [17] was -0.06 and the “glycan array binding signal (z-score)” value [18] was -0.06. For the same binder, the “glycan array binding signal (z-score)” value [19] was -0.074, the “glycan array binding signal (z-score)” value (Fuc(a1-2)Gal(b1-4)Glc) was -0.063 and the “glycan array binding signal (z-score)” value (Fuc(a1-2)Gal(b1-4)Glc6S) was -0.071. The “glycan array binding signal (z-score)” value (Fuc(a1-2)Gal(b1-4)GlcNAc) was -0.08, the “glycan array binding signal (z-score)” value [20] was -0.068 and the “glycan array binding signal (z-score)” value [21] was -0.085. For the same binder, the “glycan array binding signal (z-score)” value [22] was -0.072, the “glycan array binding signal (z-score)” value [23] was -0.061 and the “glycan array binding signal (z-score)” value [24] was -0.075.
